The supplement of paper PMC9542798

Legend:
Assay in all cases: minimum inhibitory concentration
Ampicillin = compound: CC1(C)S[C@@H]2[C@H](NC(=O)[C@H](N)c3ccccc3)C(=O)N2[C@H]1C(=O)O [Ampicillin]
Procedure: (§1)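 Broth microdilution MIC per ISO 10932 on precoated VetMIC Lact-1 plates (tylosin, vancomycin and ampicillin plates prepared manually) against lactic acid bacteria and bifidobacteria isolates. Plates were read visually after 48 h anaerobic incubation (bifidobacteria 72 h; enterococci and staphylococci 24 h aerobic) at species-specific temperatures of 30 or 37 °C. Values prefixed with < or > are outside the tested dilution range.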

Neomycin = compound: NC[C@@H]1O[C@H](O[C@H]2[C@@H](O)[C@H](O[C@@H]3[C@@H](O)[C@H](N)C[C@H](N)[C@H]3O[C@H]3O[C@H](CN)[C@@H](O)[C@H](O)[C@H]3N)O[C@@H]2CO)[C@H](N)[C@@H](O)[C@@H]1O [Neomycin]
Procedure: as §1

Erythromycin = compound: CC[C@H]1OC(=O)[C@H](C)[C@@H](O[C@H]2C[C@@](C)(OC)[C@@H](O)[C@H](C)O2)[C@H](C)[C@@H](O[C@@H]2O[C@H](C)C[C@H](N(C)C)[C@H]2O)[C@](C)(O)C[C@@H](C)C(=O)[C@H](C)[C@@H](O)[C@]1(C)O [Erythromycin]
Procedure: as §1

Vancomycin = compound: CN[C@H](CC(C)C)C(=O)N[C@H]1C(=O)N[C@@H](CC(N)=O)C(=O)N[C@H]2C(=O)N[C@H]3C(=O)N[C@H](C(=O)N[C@H](C(=O)O)c4cc(O)cc(O)c4-c4cc3ccc4O)[C@H](O)c3ccc(c(Cl)c3)Oc3cc2cc(c3O[C@@H]2O[C@H](CO)[C@@H](O)[C@H](O)[C@H]2O[C@H]2C[C@](C)(N)[C@H](O)[C@H](C)O2)Oc2ccc(cc2Cl)[C@H]1O [Vancomycin]
Procedure: as §1

Kanamycin = compound: NC[C@H]1O[C@H](O[C@H]2[C@H](O)[C@@H](O[C@H]3O[C@H](CO)[C@@H](O)[C@H](N)[C@H]3O)[C@H](N)C[C@@H]2N)[C@H](O)[C@@H](O)[C@@H]1O [Kanamycin]
Procedure: as §1

Streptomycin = compound: CN[C@@H]1[C@H](O[C@H]2[C@H](O[C@H]3[C@H](O)[C@@H](O)[C@H](N=C(N)N)[C@@H](O)[C@@H]3N=C(N)N)O[C@@H](C)[C@]2(O)C=O)O[C@@H](CO)[C@H](O)[C@H]1O [Streptomycin]
Procedure: as §1

Tetracycline = compound: CN(C)[C@@H]1C(O)=C(C(N)=O)C(=O)[C@@]2(O)C(O)=C3C(=O)c4c(O)cccc4[C@@](C)(O)[C@H]3C[C@@H]12 [Tetracycline]
Procedure: as §1

Chloramphenicol = compound: O=C(N[C@H](CO)[C@H](O)c1ccc([N+](=O)[O-])cc1)C(Cl)Cl [Chloramphenicol]
Procedure: as §1

Clindamycin = compound: CCC[C@@H]1C[C@@H](C(=O)N[C@@H]([C@H]2O[C@H](SC)[C@H](O)[C@@H](O)[C@H]2O)[C@H](C)Cl)N(C)C1 [Clindamycin]
Procedure: as §1

Gentamicin = compound: CNC(C)C1CCC(N)C(OC2C(N)CC(N)C(OC3OCC(C)(O)C(NC)C3O)C2O)O1 [Gentamicin]
Procedure: as §1
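Note: isolates derived from commercial starter, protective, probiotic or feed-additive cultures, from fermented products, from human gut mucosa or feces, and from human milk or colostrum.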

Test System	minimum inhibitory concentration (Ampicillin)	minimum inhibitory concentration (Neomycin)	minimum inhibitory concentration (Erythromycin)	minimum inhibitory concentration (Vancomycin)	minimum inhibitory concentration (Kanamycin)	minimum inhibitory concentration (Streptomycin)	minimum inhibitory concentration (Tetracycline)	minimum inhibitory concentration (Chloramphenicol)	minimum inhibitory concentration (Clindamycin)	minimum inhibitory concentration (Gentamicin)
Lactobacillus gasseri IM725 (strain group: human milk or colostrum)	0.5 µg/mL	16 µg/mL	0.12 µg/mL	2 µg/mL	64 µg/mL	16 µg/mL	1 µg/mL	4 µg/mL	0.12 µg/mL	2 µg/mL
Lactobacillus gasseri IM814 (strain group: human milk or colostrum)	0.5 µg/mL	16 µg/mL	0.03 µg/mL	1 µg/mL	16 µg/mL	1 µg/mL	2 µg/mL	4 µg/mL	4 µg/mL	1 µg/mL
Lactobacillus gasseri IM816 (strain group: human milk or colostrum)	0.5 µg/mL	32 µg/mL	0.12 µg/mL	2 µg/mL	128 µg/mL	8 µg/mL	2 µg/mL	4 µg/mL	0.5 µg/mL	8 µg/mL
Lactobacillus gasseri IM820 (strain group: human milk or colostrum)	1 µg/mL	16 µg/mL	0.25 µg/mL	1 µg/mL	128 µg/mL	4 µg/mL	2 µg/mL	4 µg/mL	4 µg/mL	4 µg/mL
Lactobacillus gasseri IM821 (strain group: human milk or colostrum)	1 µg/mL	16 µg/mL	0.12 µg/mL	1 µg/mL	64 µg/mL	2 µg/mL	2 µg/mL	4 µg/mL	4 µg/mL	2 µg/mL
Lactobacillus gasseri IM822 (strain group: human milk or colostrum)	0.5 µg/mL	8 µg/mL	0.06 µg/mL	1 µg/mL	64 µg/mL	8 µg/mL	1 µg/mL	4 µg/mL	4 µg/mL	2 µg/mL
Lactobacillus gasseri IM823 (strain group: human milk or colostrum)	0.5 µg/mL	16 µg/mL	0.12 µg/mL	1 µg/mL	64 µg/mL	8 µg/mL	2 µg/mL	4 µg/mL	8 µg/mL	2 µg/mL
Lactobacillus gasseri IM824 (strain group: human milk or colostrum)	0.5 µg/mL	8 µg/mL	0.12 µg/mL	1 µg/mL	64 µg/mL	8 µg/mL	2 µg/mL	4 µg/mL	8 µg/mL	2 µg/mL
Lactobacillus gasseri IM825 (strain group: human milk or colostrum)	0.25 µg/mL	16 µg/mL	< 0.016 µg/mL	2 µg/mL	64 µg/mL	8 µg/mL	1 µg/mL	2 µg/mL	0.25 µg/mL	2 µg/mL
Lactobacillus gasseri IM826 (strain group: human milk or colostrum)	0.5 µg/mL	8 µg/mL	0.12 µg/mL	1 µg/mL	64 µg/mL	4 µg/mL	1 µg/mL	4 µg/mL	8 µg/mL	2 µg/mL
Lactobacillus gasseri IM852 (strain group: human milk or colostrum)	1 µg/mL	8 µg/mL	0.12 µg/mL	1 µg/mL	256 µg/mL	8 µg/mL	1 µg/mL	4 µg/mL	4 µg/mL	2 µg/mL
Lactobacillus gasseri IM853 (strain group: human milk or colostrum)	1 µg/mL	16 µg/mL	0.12 µg/mL	2 µg/mL	128 µg/mL	4 µg/mL	2 µg/mL	4 µg/mL	4 µg/mL	2 µg/mL
Lactobacillus gasseri IM854 (strain group: human milk or colostrum)	1 µg/mL	16 µg/mL	0.25 µg/mL	1 µg/mL	128 µg/mL	16 µg/mL	2 µg/mL	4 µg/mL	8 µg/mL	4 µg/mL
Lactobacillus gasseri IM856 (strain group: human milk or colostrum)	1 µg/mL	8 µg/mL	0.12 µg/mL	1 µg/mL	128 µg/mL	2 µg/mL	2 µg/mL	4 µg/mL	4 µg/mL	2 µg/mL
Lactobacillus gasseri IM862 (strain group: human milk or colostrum)	0.5 µg/mL	16 µg/mL	0.12 µg/mL	1 µg/mL	64 µg/mL	8 µg/mL	4 µg/mL	4 µg/mL	8 µg/mL	2 µg/mL
Lactobacillus gasseri IM872 (strain group: human milk or colostrum)	0.5 µg/mL	32 µg/mL	0.12 µg/mL	2 µg/mL	64 µg/mL	4 µg/mL	2 µg/mL	4 µg/mL	4 µg/mL	4 µg/mL
Lactobacillus gasseri IM873 (strain group: human milk or colostrum)	0.5 µg/mL	32 µg/mL	0.12 µg/mL	1 µg/mL	64 µg/mL	2 µg/mL	2 µg/mL	4 µg/mL	2 µg/mL	2 µg/mL
